Results published in the RNAGym collection of RNA variant scans (doi:10.7554/elife.90254).
The source gives no read counts; variants with many changes may rest on few reads.

B1: OR4K15 (parent)
chain: GUUAACGGUCAUAGGCCAUGGAAACUAGGAGCACCAUUUCGCUGCCAGUGAAGAAAUGAACAAAGAAAAUCUGGGCCAGGCAGGCAUCAAAAGAAAUAGUCUUGCGCUCAACCAGAAAGUCUGUAAUCAUUUUAAGGGUA

Variants of: B1
Assay: self-cleavage, relative activity (ratio to wild type); higher = more cleavage; in vitro, sequencing; the parent is a self-cleaving ribozyme

| Variant | self-cleavage |
| --- | --- |
| GUUAACGGUCAUAGGCCAUGGAAACUAGGAGCACCAUUUCGCUGCCAGUGAGGAAAUGAACAAAGAAAUUCUGGGCCUGGCAGGCAUCAAAAGAAAUAGUCUUGCGCUCAACCAGAAAGUCUGUAAUCAUUUUAAGGGUA [A52G A69U A78U] | 0.35 |
| GUUAACGGUCAUGGGCCAUGGAAACUAGGAGCACCAUUUCGCUGCCAGUGAAGAAAUGAACAAAGAAAAUCUGGGCCAGGCAGGCAUCAAGAGAAAUAGUCUUGCGCUCAACCAGAGAGUCUGUGAUCAUUUUAAGGGUA [A13G A91G A117G A125G] | 0.58 |
| GUUAACGGUCAUAGGCCAUGGAAACUAGGAGCACCAUUUCGCCGCCAGUGAAGAAAUGAACAAAGAAAACCUGGGCCAGGCAGGCAUCAAAAGAGAUAGUCUUGCGCUCAACCAGAAAGUCUGUAAUCAUUUUAAGGGUA [U43C U70C A95G] | 0.41 |
| GUUAACGGUCAUAGGCCAUGGGAACUGGGAGCACCAUUUCGCUGCCAGUGAAGAAAUGAACAAAGAAAAUCCGGGCCAGGCAGGCAUCAAAAGAAGUAGUCUUGCGCUCAACCAGAAAGUCUGUAAUCAUUUUAAGGGUA [A22G A27G U72C A96G] | 0.44 |
| GUUAACGGUCAUAGGCCAUGGAAACUAGGAGCACCAUUUCGCUGCCAGUGAAGAAAUGAACAAAGAAAAUCUGGGCCUGGCAGGCAUCAAAAGAGAUAGUCUUGCGCUCAACCAGAAAGUCUGUAAUCGUUUUAAGGGUA [A78U A95G A129G] | 0.31 |
| GUUAACGGACAUAGGCCAUGGAAACUAGGAGCACCAUCUCGCUGCCAGUGAGGAAAUGAACAAAGAAAAUCUGGGCCAGGCAGGCAUCAAAAGAAAUAGUCUUGCGCUCAACCAGAAAGUCUGUAAUCAUUUCAAGGGUA [U9A U38C A52G U133C] | 1.73 |
| GUUAACGGUCAUAGGCCAUGGAAACUAGGAGCACCAUCUCAUUGCCAGUGAAGAAAUGAACAAAGAAAAUCUGGGCCAGGCAGGCAUCAAAAGAAAUAGUCUUGCGCUCAACCAGAAAGUCUGUAAUCACUUUAAGGGUA [U38C G41A C42U U130C] | 1.23 |
| GUUAACGGACAUAGGCCAUGGGAACUAGGAGCACCAUUCCGCUGCCAGUGAAGAAAUGAACAAAGAAGAUCUGGGCCAGGCAGGCAUCAAAAGAAAUAGUCUUGCGCUCAACCAGAAAGUCUGUAAUCGUUCUAAGGGUA [U9A A22G U39C A68G A129G U132C] | 1.22 |
| GUUAACGGUCAUAGGCCAUGGAAACUAGGAGCACCAUCUCGCUGCCUGUGAAGAAAUGAACAAAGAAAAUCUGGGCCAGGCAGGCAUCAAAAGAAAUAGUCUUGCGCUCAACCAGAAAGUCUGUAACCAUUUUAAGGGUA [U38C A47U U127C] | 0.48 |
| GUUAACGGUCACAGGCCAUGGAAACUAGGAGCACCAUUUCGCUGCCAGUGAAAAAAUGAACAAAGAAAAUCUGGGCCAGGCAGGCAUCAAAAGAAAUAGUCUUGCGCUCAACCAGAAAGUCAGUAAUCAUUUUAAGGGUA [U12C G53A U122A] | 0.86 |
| GUUAACGGUCUUAGGCCAUGGAAACUAGGAGCACCGUUUCGCUGCCAGUGAAGAAAUGAACAAAGAAAAUCUGGGCCAGGCAGGCAUCAAAAGAAAUAGUCUUGCGCUCAACCUGAAAGUCUGUAAUCAUUUUAAGGGUA [A11U A36G A114U] | 0.2 |
| GUUAACGGUCAUAGGCCAUGGAAACUAGGAGCACCAUUUCGCUGCCAGUGAAGAAAUGGACAAAGAAAAUCUGGGCCAGGCAGGCAUCAAAGGAAAUAGUCUCGCGCUCAACCAGAAAGUCUGUAAUCAUUUUAAGGGUA [A59G A92G U103C] | 0.56 |
| GUUAACGGUCAUAGGCCAUGGAAACUAGGAGCACCAUUUCGCUGCCAGUGAAGAAAUGAACAAAGAAAACCUGGGCCAGGCGGGCAUCAAAAGAAAUAGUCUUGCGCACAACCAGAAGGUCUGUAAUCAUUUUAAGGGUA [U70C A82G U108A A118G] | 0.02 |
| GUUAACGGUCAUAGGCCAUGGAAACUAGGGGCACCAUUUCGCUGCCAGUGAGGAAAUGAACAAAGAAAAUCUGGGCCAGGCAGGCAUCAGAAGAAAUAGUCUUGCGCUCAACCAGAAAGUCUGUAAUCAUUUUAAGGGUA [A30G A52G A90G] | 0.26 |
| GUUAACGGACAUAGGCCAUGGAAACUAGGAGCACCAUUUCGCUGCCAGUGAAGAAAUGAACAAAGAAAAUCUGGGCCAGGCUGGCAUCAAAAGAAAUGGUCUUGCGCUCAACCAGAAAGUCUGUAACCAUUUUAAGGGUA [U9A A82U A98G U127C] | 0.03 |
| GUUAACGGUCACAGGCCAUGGAAACUAGGAGCACCAUUUCGCUGCCAGCGAAGAAAUGAACAAAGAAAAUCUGGGCCAGGCAGGCAUCAAAAGAAAUAGUCUUGCGCUCAACCAGAAAGUCUGUAAUCAUUCUAAGGGUA [U12C U49C U132C] | 1.13 |
| GCUAACGGUCAUAGGCCAUGGAAACUAGGAGCACCAUUUCGCUGCCAGUGAAGAAAUGAACAAAGAAAAUCUGGGCCGGGCAGGCAUCGAUAGAAAUAGUCUUGCGCUCAACCAGAAAGUCUGUAAUCAUUUUAAGGGUA [U2C A78G A89G A91U] | 0.41 |
| GUUAGCGGUCAUAGGCCAUGGAAACUAGGAGCGCCAUUUCGCUGCCAGUGAAGAAAUGAGCAAAGAAAAUCUGGGCCAGGCAGGCAACAAAAGAAAUAGUCUUGCGCUCAACCAGAAAGUCUGUAAUCAUUUUAAGGGUA [A5G A33G A60G U87A] | 0.6 |
| GUUAACGGUCAUAGGCCAUGGAAACUAGGAGCACCAUGUCGCUGCCAGUGAAGAUAUGAACAAAGAAAAUCUGGGCCAGGCGGGCAUCAAAAGAAAUAGUCUUGCGCUCAACCAGAAAGUCUGUAAUCAUUUUAAGGGUA [U38G A55U A82G] | 0.66 |
| GUUAACGGUCAUAGGCCAUGGAAACUAGGAGCACCAUUUCGCUGCCAGUGAAGAAAUGAACAAAGAAAGUCUGGGCCAGGCAGGCAUCAAAAGAAAUAGUCUUGCGCUCAACCAGAAAGUCUUUAAUCAUUUUAAGGGCA [A69G G123U U139C] | 2.14 |
| GUUAACGGUCAUAGGCUAUGGAAACUAGGAGCACCAUUUCGCUGCCAGUGAUGAAAUGAACAAAGAAGAUCUGGGCCAGGCAGGCAUCAAAAGAAAUAGUCUUGCGCUCAACCAGAAAGUCUGUAAUCAUUUUAAGGGUA [C17U A52U A68G] | 0.68 |

| Variant | self-cleavage |
| --- | --- |
| GUUAACGGUCAUAGGCCAUGGAAACUAGGAGCACCAUUUCGCUGCCAGUGAAGAAAUGAACAAAGAAAAACUGGGCCAGGCAGGCAUCAAAAGAAAUAGCCUUGCGCUCGACCAGAAAGUCUGUAAUCAUUUUAAGGGUA [U70A U100C A110G] | 0.26 |
| GUUAACGGUCAUAGGCCAUGGAAGCUAGGAGCACCAUUUCGCUGCCAGUGAAGAAAUGAACAAAGAAAAUCUGGGCCAGGCAGGCAUCCAAAGAAAUAGUCUUGCGCUCAACCAGAAAGUCUGUAACCAUUUUAAGGGUA [A24G A89C U127C] | 0.53 |
| GUUAACGGUCAUAGGCCAUGGAAACUAGUAGUACCAUUUCGCUGCCAGUGAAGAAAUGAACAAAGAAAAUCUGGGCCAGGCAGGCAUCAAGAGAAAUAGUCUUGCGCUCAACCAGAAAGUCUGUAAUCAUUUUAAGGGUA [G29U C32U A91G] | 1.22 |
| GUUAACGGUCAUAGGCCAUGGAAACUAGGAGCACUAUUUCGCUGCCAGUGAAGAAAGGAACAAAGAAGAUCUGGGCCAGGCAGGCAUCAAAAGGAAUAGUCUUGCGCUCAACCAGGAAGUCUGUAAUCAUUUUAAGGGUA [C35U U57G A68G A94G A116G] | 0.27 |
| GUUAACGGUCAUAGGCCAUGGAAACUAGGAGCACCAUUUCGCUGCCAGCGAAGAAAUGAACAAAGAAAAUCUGGGCCAGGCAGGCAUCAAGAGAAAUAGUCUUGCGCUCAGCCAGAAAGUCUGUAAUCAUUUUAAGGGUA [U49C A91G A111G] | 0.01 |
| GUUAACGGUCAUAGGCCAUGGAAACUAGGAGCACCAUUUCGCUGCCAGUGAGGAGAUGAACAAAGAAAAUCUGGGCCAGGCAGGCAUCAAAAGAAAUAGUCAUGCGCUCAACCAGAAUGUCUGUAAUCAUUUUAAGGGUA [A52G A55G U102A A118U] | 0.16 |
| GUUAACGGUCAUAGGCCAUGGAACCUAGGAGCACCAUUUCGCUGCCAGUGAAGAAAUGAUCAAAGAAAAUCUGGGCCAGGCAGGCAUCAAAAGAAAUAGUCUUGCGCUCAACCAGAAAGCCUGUAGUCAUUUUAAGGGUA [A24C A60U U120C A126G] | 1.12 |
| GUUAACGGUCAUAGGCCAUGGAAACUAGGAGCACCAUUUCGCUGCCAGUGAAGAAAUGAACAAAGAAAAUCUGGGCCUGGCAGGCAUCAAAAGAAAUAGUCUUGCGCUCAACCAGAAAGUCUGUAAUCGCUUUAAGGGUA [A78U A129G U130C] | 0.13 |
| GUUAACGGUCAUAGGCCAUGGAAACUAGGAGCACCAUUUCGCCGCCAGUGGAGAAAUGAACAAAGAAAAUCUGGGCCAGGCAGGCAUCAAAAGAAAUAGUCUUGCGCUCAACCAGAAAGUCUGUAACCAUUUUAAGGGUA [U43C A51G U127C] | 1.1 |
| GUUAACGGUCAUAGGCCAAGGAAACUAGGAGCACCAUUUCGCUGUCAGUGAAGUAAUGAACAAAGAAAAUCUGGGCCAGGCAGGCAUCAAAAGAAAUAGUCUUGCGCUCAGCCAGAGAGUCUGUAAUCAUUUUAAGGGUA [U19A C45U A54U A111G A117G] | 0.01 |
| GUUAACGGUCAUAGGCCAUGGGAACUAGGAGCACCAUUUCGCUGCCAGUGAAGAAAUGAUCAAAGAAAAUCUGGGCCAGGCAGGCAUCAAAGGAAAUAGUCUUGCGCUCAACCAGAAAGUCUGUAAUCAUUUUGAGGGUA [A22G A60U A92G A134G] | 1.82 |
| GUUAACGGUCAUAGGCCAAGGAAACUAGGAGCACCAUUUCGCUGCCAGUGAAGAAAUGAGCAAAGGAAAUCUGGGCCAGGCAGGCAUCAAAAGAAAUAGUCUUGCGCUCAACCAGAAAGUCUGUGAUCAUUUUAAGGGUA [U19A A60G A66G A125G] | 0.6 |
| GCUAGCGGUCAUAGGCCAUGGAAACUAGGAGCACCAUUUCGCUGCCAGUGAAGAAACGAACAAAGAGAAUCUGGGCCAGGCAGGCGUCAAGAGGAAUAGUCUUGCGCUCAACCAGAAAGUCUGUAAUCAUUUUAAGGGUA [U2C A5G U57C A67G A86G A91G A94G] | 0.1 |
| GUUAACGGUCGUAGGCCAUGGAAACUAGGAGCACCAAUUCGCUGCCAGUGAAGAAAUGAACAAGGAAAAUCUGGGCCGGGCAGGCAUCAAAAGAAAUAGUCUUGCGCUCAACCAGAAAGUCUGUAAUCAUUUUAAGGGUA [A11G U37A A64G A78G] | 0.25 |
| GUUAACGGUCAUAGGCCAUGGAAACUAGGAGCACCAUUUCGCUGCCAGUGAAGAAAUGAACAAAGAAAGUCUGGGCCAGGCAGGCAUCAAAAGAAAUAGUCUUGCGCUCAACCAGAAGGUCUGUAAUCAGUUUAAGGGUA [A69G A118G U130G] | 0.22 |
| GUUAACGGUCGUAGGCCAUGGAAACUAGGAGCACCAUUUCGCUGCCAGUGAUGAAAUGAACAAAGAAAAUCUGGGCCAGGCAGGCAUCAAAAGAAAUAGUCUUGCGCUCAACCAGAAGGUCUGUAAUCAUUUUAAGGGUA [A11G A52U A118G] | 0.59 |
| GUUAACGGUCAUGGGCCAUGGAAACUAGGAGCACCAUUUCGCUGCCAGUGAAGAAAUGAACAAAGAAAAUCUGGGCCAGGCAGGCAUCAAAAGAAAUAGUCUUGCGCUCAACCAGAAAGUAUGUAAUCAUCUUAAGGGUA [A13G C121A U131C] | 1.86 |
| GUUAACGGUCAUAGGCCAUGGAAACUAGGAGCACCAUUUCGCUGCCAGUAAGGAAAUGAACAAAGAAAAUCUGGGCCAGGCAGGCAUCUAAAGAAAUAGUCUUGCGCUCAACCAGAAAGUCUGUAAUCAUUUUAAGGGUA [G50A A52G A89U] | 1.84 |
| GUUAACGGUCGUAGGCCAUGGAAACUAGGAGCACCAUUUCGCUGCCAGUGAAGAAAUGAACAAAGAAAAUCUGGACCAGGCAGGCAUCAAAAGAAAUAGUUUUGCGCUCAACCAGAAAGUCUGUAAUCAUUUUAAGGGUA [A11G G75A C101U] | 0.09 |
| GUUAACGGUCAUAGGCCAUGGAAACUAGGAGCACCAUUCCGCUGCCAGUGAAGAAAUGAACAAAGAAAAUCUGGGCCAGGCAGGCAUCAAAAGAAAUAGUCUUGCGCUCAGCCAGAGAGUCUGUAAUCAUUUUAAGGGUA [U39C A111G A117G] | 0.01 |
